Test results reported in PubChem BioAssay AID485297 (National Center for Advancing Translational Sciences (NCATS), 2010).
Among all 320,000 compounds or so, about 9,100 (2.8%) were called active. Inconclusive means that the source gave no clear call. Such entries were picked first, then a sample of the others. Calls follow the shape of the dose curve; as a rule, active = well fitted activation curve with a large enough effect; inconclusive = small, poorly fitted or top-dose-only effect; inactive = no such curve, though single readings can be large or run the other way. No potency is given beside an inconclusive call; the fits are too rough.

Assay: qHTS Assay for Rab9 Promoter Activators; also: nearly all actives have a fitted effect of over 60% in size; as to activation, negative = inhibition: % of control where 0% means no effect
Settings: Huh7 Rab9 promoter-luciferase reporter, luminescence, 24 h; series mostly up to 9.22 µM; activation, negative = inhibition: at the top concentration
Outline: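 Luminescence from Amplite-detected luciferase (10 minutes, ambient) reports Rab9 promoter activation. Before that, stable Rab9-luciferase Huh7 cells (1500/well, reduced-serum OP-MEM I plus 10% FBS) were exposed to compound for 24 hours at 37C.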
Potency is read from the fitted curve at half-maximal effect; tags tell the direction and shape of the fitted curve.

| Structure (SMILES) | Potency | activation, negative = inhibition |
| --- | --- | --- |
| O=C(CSc1ccc2nc(-c3ccccc3)cn2n1)NCC1CCCO1 (centres undefined) | inconclusive [activator, partial curve] | – |
| COc1cccc2oc3ccc(C#CC4(N)CCCCC4)cc3c(=O)c12 | inconclusive [activator, partial curve] | – |
| CCN(C(=O)COC(=O)Cc1c(F)cccc1Cl)c1c(N)n(Cc2ccccc2)c(=O)[nH]c1=O | – | inactive: -0.28% |
| N/C(=N\OC(=O)c1ccc2c(c1)OCO2)c1ccc([N+](=O)[O-])cc1 | inconclusive [activator, partial curve, poor fit] | – |
| Cc1cccc(OCc2cc(-c3ccccc3)no2)c1C | inconclusive [activator, partial curve] | – |
| c1ccc(CSc2nnc(-c3ccco3)n2Cc2ccco2)cc1 | inconclusive [activator, single point] | – |
| CCN1CCN(S(=O)(=O)c2ccc(Cl)c(C(=O)NCCc3ccccc3)c2)CC1 | inconclusive [activator, partial curve] | – |
| CCOC(=O)N1CCN(C(=O)c2noc3c2COc2ccccc2-3)CC1 | inconclusive [activator, partial curve] | – |
| COc1ccccc1N=Nc1c(C)[nH]n(-c2ccccc2)c1=O | inconclusive [activator, partial curve] | – |
| N#CCCNS(=O)(=O)c1ccc(C(=O)OCCCOC(=O)c2ccc(S(=O)(=O)NCCC#N)cc2)cc1 | – | inactive: 11.4% |
| Cn1ncc2c(O/N=C(\N)c3ccc(C(C)(C)C)cc3)ncnc21 | – | inactive: -41.4% |
| O=C(O)c1cc(N/N=C/c2ccc3c(c2)OCO3)ccc1Cl | active: 0.1 µM | – |
| CC(=O)c1sc(NC(=O)CCOc2ccccc2)nc1C | inconclusive [activator, partial curve] | – |
| COc1ccc2nc(NC(=O)NC3CCCCC3)sc2c1 | active: 2 µM | – |
| Cc1cc(C(=O)Nc2ccc3[nH]ccc3c2)no1 | active: 2.82 µM | – |
| Cc1ccc(S(=O)(=O)n2ccc3c(OCCOCCNCc4ccc(F)cc4)cccc32)cc1 | – | inactive: -5.58% |
| CC1(C)CN=C(N(Cc2ccccc2)C(=O)Nc2ccccc2)S1 | inconclusive [activator, single point] | – |
| Cc1ccc2c(c1)c(N=NC(N)=O)c(O)n2C | – | inactive: -4.85% |
| Cc1cn(C2CC(OC(=O)C(C)C)C(CO)O2)c(=O)[nH]c1=O (centres undefined) | – | inactive: -3.96% |
| CC1CCN(C(=O)COc2cccc3c2CCN(C)C3=O)CC1 | – | inactive: -1.89% |
| CS(=O)(=O)c1cnc2c(-c3ccc(F)cc3)cnn2c1N | active: 1.12 µM | – |
| O=C(c1ccc(-n2cncn2)c([N+](=O)[O-])c1)N1CCN(S(=O)(=O)c2cccc(F)c2)CC1 | – | inactive: 10.5% |
| COc1cc(OC)c2c(=O)cc(-c3ccccc3)oc2c1 | inconclusive [activator, partial curve] | – |
| COC(=O)c1ccc(NC(=O)C2CCCO2)cc1 (centres undefined) | inconclusive [activator, single point] | – |
| CC(=O)c1cc2c(C)c(C(=O)c3ccccc3)oc2cc1O | active: 1.58 µM | – |
| Cc1cccc(NC(=O)Nc2ccc(C)cc2Br)c1 | inconclusive [activator, partial curve] | – |
| Cc1cccc(OCCN2C(=O)c3ccccc3C2=O)c1 | active: 3.55 µM | – |

| Structure (SMILES) | Potency | activation, negative = inhibition |
| --- | --- | --- |
| CC(C)c1nc2cc(C(=O)NC(c3cccnc3)C(F)(F)F)ccc2o1 (centres undefined) | – | inactive: 12.2% |
| COc1ccc(/C=N\NC(=O)C2=NNC(=O)C2C)cc1 (centres undefined) | inconclusive [activator, partial curve] | – |
| CCN(CC)CCN1C(=O)c2ccccc2NC1c1ccc(F)cc1 (centres undefined) | – | inactive: 7.84% |
| Cc1ccc(-c2cc(C(=O)NCC3CCCO3)no2)cc1 (centres undefined) | active: 2.82 µM | – |
| O=C(N/N=C\c1ccccn1)C1COc2cc3ccccc3cc2O1 (centres undefined) | inconclusive [activator, single point] | – |
| N/C(=N\OC(=O)c1ccc(Br)cc1)c1ccncc1 | inconclusive [activator, single point] | – |
| CCCCN1C(=O)/C(=C/C=C2\Oc3ccccc3N2CC)SC1=S | – | inactive: -2.97% |
| O=C(CN1C(=O)c2ccccc2S1(=O)=O)c1ccccc1Cl | inconclusive [activator, full curve] | – |
| COc1cccc(C(=O)N=c2sc3cc(S(C)(=O)=O)ccc3n2C)c1 | active: 3.55 µM | – |
| COc1ccc2nc(Cl)c(/C=N/Nc3ccccn3)cc2c1 | inconclusive [activator, partial curve] | – |
| Oc1c(C(Nc2cccc(C(F)(F)F)c2)c2cccnc2)ccc2cccnc12 (centres undefined) | – | inactive: -1.61% |
| Cc1c(C(=O)OCC(=O)N2C(C)CCCC2C)oc2ccccc12 (centres undefined) | inconclusive [activator, partial curve] | – |
| COc1cc(/C=C/C(=O)OCC(=O)NCc2ccco2)ccc1O | – | inactive: -6.67% |
| COc1ccc(S(=O)(=O)NCC2CCC(C(=O)NCc3ccc(F)cc3)CC2)cc1 (centres undefined) | – | inactive: -1.57% |
| O=C(NCCCN1CCOCC1)c1ccc(-n2nc(C(F)(F)F)cc2-c2cccs2)cc1 | – | inactive: -12.7% |
| Cc1cc(C)cc(NC(=O)Nc2cccc(S(N)(=O)=O)c2)c1 | – | inactive: 1.39% |
| O=C(O)/C=C/C(=O)Nc1ccc(C(=O)c2ccccc2)cc1 | – | inactive: -1.31% |
| Cc1ccn2cc(-c3cccc(NC(=O)C(C)C)c3)nc2c1 | inconclusive [activator, partial curve] | – |
| COC(=O)Nc1csc2c1NC(=O)CCCC2 | – | inactive: -1.72% |
| O=C(CN1C(=O)c2ccccc2C1=O)NN1C(=O)c2ccccc2C1=O | inconclusive [activator, single point] | – |
| O=C(Nc1cccc(Cl)c1N1CCCC1)c1cc2ccccc2o1 | inconclusive [activator, partial curve, poor fit] | – |
| CC(/C=N/Nc1nnc(C)c(=O)[nH]1)=C\c1ccccc1 | inconclusive [activator, partial curve] | – |
| CCCC(=O)N1CCN(c2nc3ccccc3s2)CC1 | active: 1.12 µM | – |
| Cc1ccc(S(=O)(=O)c2cc3c(=O)n4ccccc4nc3n(C)c2=N)cc1 | – | inactive: -3.5% |
| COCc1nc2oc3ccccc3c(=O)c2cc1C(=O)OC | active: 4.47 µM | – |
| Cc1noc(C)c1C(=O)Nc1nc(-c2cccs2)cs1 | inconclusive [activator, single point] | – |
| COc1ccc(OC2CCN(S(=O)(=O)c3ccc(OC)cc3)CC2)cc1 | – | inactive: -7.05% |

| Structure (SMILES) | Potency | activation, negative = inhibition |
| --- | --- | --- |
| CCC(CC)c1nnc(NC(=O)/C=C/c2ccco2)s1 | inconclusive [activator, partial curve] | – |
| CCOc1ccc(N=Nc2c(N)[nH][nH]c2=O)cc1 | inconclusive [activator, partial curve] | – |
| COc1ccc(C(=O)COC(=O)c2cccnc2Cl)c(OC)c1 | active: 2.24 µM | – |
| O=C(NC1CC1)C1CCN(c2nc3ccccc3s2)CC1 | inconclusive [activator, partial curve] | – |
| COc1ccc(-c2cc3c(=O)n(CC(=O)NCCCN4CCC(Cc5ccccc5)CC4)ncn3n2)cc1 | inconclusive [activator, partial curve] | – |
| Cc1cccc(-n2c(C)cc(C=C3C(=O)c4ccccc4C3=O)c2C)c1 | inconclusive [activator, single point] | – |
| COc1c(Cl)cccc1-c1cn2ccccc2n1 | active: 1.26 µM | – |
| CCN(CC)C(=O)CSc1ncnc2c1cnn2-c1ccccc1 | inconclusive [activator, partial curve] | – |
| Cc1ccc(/C=C(\C#N)C(=O)Nc2ccccn2)o1 | active: 2.51 µM | – |
| Cc1nn2c([nH]c(=O)c3ccccc32)c1C=O | – | inactive: 3.45% |
| CCN(C(=O)COC(=O)c1n[nH]c2ccccc12)c1ccccc1 | – | inactive: -7.51% |
| CCCCCC(=O)Nc1ccc(-c2cn3cccnc3n2)cc1 | inconclusive [activator, single point] | – |
| CCOC(=O)c1ccc(N2Cc3ccccc3C2)cc1O | inconclusive [activator, single point] | – |
| O=[N+]([O-])c1cccc(S(=O)(=O)Nc2cccc(-c3ccc(N4CCOCC4)nn3)c2)c1 | inconclusive [activator, partial curve] | – |
| COc1ccc(OC(=O)c2cccnc2)cc1 | – | inactive: 0.178% |
| O=C(Nc1ccc(OC(F)(F)F)cc1)c1cnccn1 | active: 2.82 µM | – |
| O=C(NCc1ccccn1)Nc1ccc(Cl)cc1Cl | inconclusive [activator, partial curve] | – |
| COc1ccc(NC(=O)c2ccc(Br)o2)c([N+](=O)[O-])c1 | inconclusive [activator, partial curve] | – |
| Cc1cc2cc(C)c(NCCNC(=O)c3cccs3)nc2cc1C | – | inactive: -7.67% |
| CC1CCN(CCc2nc3cc(NC(=O)COc4ccc(Cl)cc4)ccc3n2C)CC1 | – | inactive: 0.489% |
| O=C(NNC(=S)Nc1ccc(Cl)cc1)c1ccccc1 | inconclusive [activator, partial curve] | – |
| CCOc1ccc(-c2csc(NC(=O)c3ccco3)n2)cc1 | inconclusive [activator, single point] | – |
| Cn1ccnc1SCC(=O)c1cccc(Br)c1 | inconclusive [activator, partial curve] | – |
| COc1ccccc1NC(=O)Nc1ccc(CC#N)cc1 | inconclusive [activator, single point] | – |
| CCN(CC)c1nc(Nc2ccc([N+](=O)[O-])cc2)nc(N(CC)CC)n1 | inconclusive [activator, single point] | – |
